According to PubChem BioAssay AID493208 (National Center for Advancing Translational Sciences (NCATS), 2011):
Among all 44,000 compounds or so, about 340 (0.77%) were called active. Another 5% or so got no clear call; they are omitted. Calls follow the shape of the dose curve; as a rule, active = well fitted inhibition curve with a large enough effect; inconclusive = small, poorly fitted or top-dose-only effect; inactive = flat fitted curve, though single readings scatter. This is one part of the list.

assay: Acumen qHTS Assay for Inhibitors of the mTORC1 Signaling Pathway in MEF (Tsc2-/-, p53-/-) Cells: Sytravon; settings: phospho-rpS6 immunofluorescence/PI, 24 h; series mostly up to 38.3 µM; activity change, negative = inhibition: at the top concentration;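 also: plate controls were DMSO for no effect and rapamycin for full effect; nearly all actives have a fitted effect of over 50% in size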
Method in brief: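 Read-out: phospho-S6 Alexa-488 intensity over PI intensity per well, scored as % active cells using thresholds from rapamycin (7.5 nM) and DMSO controls. Tsc2-/-, p53-/- MEFs exposed to compound for 24 h; PI cell count recorded as viability.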

Structure (SMILES)	activity change, negative = inhibition
NC(=O)c1cc(S(=O)(=O)N2CCN(c3cccc(C(F)(F)F)c3)CC2)cs1	inactive: 1.52%
O=C(CSc1nc2ccccc2nc1Cc1ccc(Cl)cc1)N1CCN(c2ccccc2)CC1	inactive: 3.45%
Cc1ccc(-n2ncc(C(=O)NCc3ccco3)c2C2CCN(C(=O)OC(C)(C)C)CC2)cc1C	inactive: -5.89%
COc1cc(NC(=O)c2cc3cc4ccc(C)cc4nc3o2)cc(OC)c1OC	inactive: -5.36%
CCc1ccccc1N(C)C(=O)C1CCCN(c2ncnc3c2nc2n3CCCCC2)C1 (centres undefined)	inactive: -11.8%
Cc1c(C(=O)Nc2cc(F)ccc2F)sc2nc(-c3ccc(F)cc3)cn12	inactive: -5.18%
CCc1c(C)c2cc3c(c(C)c2oc1=O)OCN(CCc1ccccc1F)C3	inactive: -6.99%
CCOC(=O)c1c(NC(=O)c2ccc(OCC)c(Br)c2)sc2c1CCCC2	inactive: -1.51%
Cc1cc2oc(=O)c(CC(=O)NCCc3ccccc3F)c(C)c2c2occ(C(C)(C)C)c12	inactive: 1.29%
CC(=O)Nc1cc(C(=O)NCc2ccc(F)cc2)ccc1Sc1ccc(F)cc1	inactive: 6.33%
CCCCN(C(=O)C1CCC(CNS(=O)(=O)c2cccc3nsnc23)CC1)c1ccccc1 (centres undefined)	inactive: -1.02%
O=c1c2cc3c(cc2nc2sc(Nc4cccc([N+](=O)[O-])c4)nn12)OCO3	inactive: 11%
CC(=O)Nc1ccc(NC(=O)CN(C)S(=O)(=O)c2ccc3c(c2)CCCC(=O)N3)cc1	inactive: 6.17%
COc1ccc(CC(=O)NCC(c2cccs2)S(=O)(=O)c2ccc(F)c(C)c2)cc1 (centres undefined)	inactive: -13.2%
Cc1ccc(C)c(S(=O)(=O)c2nnn3c2nc(N2CCN(C)CC2)c2sccc23)c1	inactive: -4.6%
COc1ccccc1C(=O)Nc1nc2n(n1)C(c1ccc(F)cc1)C=C(c1ccc(Cl)cc1)N2 (centres undefined)	inactive: 1.58%
CCOC(=O)c1cc(S(=O)(=O)NCc2ccc(Cl)cc2)[nH]n1	inactive: 0.011%
Cc1cccc(CN2CCC(CNC(=O)Cn3ncc4c([nH]c5ccc(C)cc54)c3=O)CC2)c1	inactive: 1.07%
COc1ccccc1C(=O)N/C(=C\c1cn(S(=O)(=O)N(C)C)c2ccccc12)C(=O)NCCCn1ccnc1	inactive: -1.05%
CCc1ccc(CNC(=O)C2CCCN(c3nnc(C)c4c(C)n(-c5ccccc5)nc34)C2)cc1 (centres undefined)	inactive: -3.26%
Cc1ccccc1CSc1ncc(Cl)c(C(=O)Nc2nc3ccc(F)cc3s2)n1	inactive: -3.81%
COc1ccccc1C(=O)Nc1ccc2nc(SCC(=O)N3CCCc4ccccc43)sc2c1	inactive: -10.5%
COc1ccc(OC)c(NC(=O)C2CCCN(S(=O)(=O)c3ccc4c(c3)CCCC(=O)N4)C2)c1 (centres undefined)	inactive: 0%
Cc1cc2n(n1)CCC(=O)N2Cc1ccc(C(=O)Nc2cc(Cl)ccc2C)cc1	inactive: 0.252%

Structure (SMILES)	activity change, negative = inhibition
COc1ccccc1NC(=O)C1=C(C)Nc2nc(SC)nn2C1c1ccccc1Cl (centres undefined)	inactive: -4.97%
O=S1(=O)c2ccccc2N(Cc2cccc(F)c2)c2ccccc21	inactive: -12.9%
COc1ccc(NC(=O)c2ccco2)cc1NC(=O)c1cc(Cl)ccc1OC	inactive: 2.78%
CSc1ccc(-c2nnn(CC(=O)Nc3sc4c(c3C#N)CCC(C(C)(C)C)C4)n2)cc1 (centres undefined)	inactive: -3.36%
CCCCOc1ccc(C(C)NC(=O)CN2C(=O)CSc3ccc(S(=O)(=O)N4CCOCC4)cc32)cc1 (centres undefined)	inactive: -3.71%
CCCN(CCC)C(=O)Cn1c(=O)n(-c2cccc(C)c2)c(=O)c2c1c1cc(OC)ccc1n2C	inactive: -4.5%
COc1cccc(-c2cc(C(F)(F)F)nc(NCCc3ccc(OC)c(OC)c3)n2)c1	inactive: -0.324%
Cc1c(C(=O)OC2CCCCC2)[nH]c2c1C(=O)CC(c1ccc(F)cc1)C2 (centres undefined)	inactive: -3.11%
CC(C)CC(=O)NCC(c1ccc2c(c1)OCO2)N1CCN(c2ccccc2)CC1 (centres undefined)	inactive: -1.57%
O=C(CN1CCCN(Cc2cccc(Cl)c2)S1(=O)=O)Nc1ccc2c(c1)OCCO2	inactive: 0%
CCC(=O)Nc1ccc(Cl)c(-c2nc3ccccc3[nH]2)c1	inactive: -9.44%
COc1ccccc1CNC(=O)CCc1c(C)nc2cc(-c3ccc(Cl)cc3)nn2c1C	inactive: -2.44%
Cc1cccc(NC(=O)c2ccc(-n3c(C)nnc3C)cc2)c1	inactive: -11.5%
Cc1ccc(-n2ncc3c(N4CCCCCC4)ncnc32)cc1Cl	inactive: 0.477%
COc1c(Cl)cc(Cl)cc1C(=O)Nc1cccc(-c2nc3ccccc3o2)c1C	inactive: -4.17%
O=S(=O)(c1ccc(F)cc1)N1CCC(Oc2cccc(C(F)(F)F)c2)CC1	inactive: -8.21%
CCc1ccccc1NC(=O)c1cn(C)c(=O)c2ccccc12	inactive: 3.28%
CCn1c(COc2ccc(Cl)cc2Cl)nc2ccccc21	inactive: 7.74%
COc1ccc(S(=O)(=O)N2Cc3ccccc3CC2C(=O)Nc2ccc(C)cc2)cc1OC (centres undefined)	inactive: -2.64%
COc1cccc(CNC(=O)C(=O)NCC(c2cccs2)S(=O)(=O)c2ccccc2)c1 (centres undefined)	inactive: -11.1%
Cc1cccc(CCNC(=O)c2cc(S(=O)(=O)N3CCCCC3)c[nH]2)c1	inactive: 0%
Cc1c2cnn(-c3ccccc3)c(=O)c2c(C)n1C(C)C(=O)Nc1ccccc1C(F)(F)F (centres undefined)	inactive: 0.97%
Cc1cccc(N2CCN(C(=O)c3ccc4c(c3)N(Cc3ccccc3)C(=O)c3ccccc3S4(=O)=O)CC2C)c1 (centres undefined)	inactive: -1.86%
CCOC(=O)CC(NC(=O)Cn1nnc(-c2ccccc2Cl)n1)c1ccc(OC)cc1 (centres undefined)	inactive: 0.166%

Structure (SMILES)	activity change, negative = inhibition
Cc1ccc(C)c(NC(c2ccccc2)c2nnc(-c3ccccc3F)o2)c1 (centres undefined)	inactive: -3.41%
Clc1ccc(CCNc2nc3cc(Cl)c(Cl)cc3n3cnnc23)cc1	inactive: -2.27%
COc1ccc(CCN2C(=O)N(c3cccc(C)c3)C(=O)C2CC(=O)Nc2ccccc2)cc1OC (centres undefined)	inactive: -0.552%
COc1cc(-c2nc(SCC(=O)Nc3ccc4c(c3)OCO4)c(-c3ccccc3)[nH]2)cc(OC)c1OC	inactive: -16.1%
COc1ccc(-c2nnc(SCC(=O)N3CCC(C)CC3)o2)cc1	inactive: -23%
COc1ccc(-c2nnc(C3CCN(S(=O)(=O)c4cccc(Cl)c4)CC3)o2)cc1	inactive: -18.5%
COc1ccccc1CNC(=O)CSc1ncc(S(=O)(=O)c2ccc(C)c(Cl)c2)c(=O)[nH]1	inactive: -11.2%
COc1ccc(OCCn2c(NC(=O)c3ccc(OC)cc3)nc3ccccc32)cc1	inactive: -12.7%
CNC(=O)C1CCC(Cn2c(=O)c3sccc3n(CC(=O)N3CCCC(C)C3)c2=O)CC1 (centres undefined)	inactive: -0.0668%
COCCCNC(=O)C1CCN(Cc2cc3ccccc3n2Cc2cccc(C)c2)CC1	inactive: -4.22%
CCOc1ccc(-c2nnc(SCC(=O)Nc3cccc(C#N)c3)o2)cc1	inactive: 5.04%
CCCCOC(=O)c1c(C)oc2c1cc(NS(=O)(=O)c1cc(OC)ccc1OC)c1ccccc12	inactive: 4.11%
COc1cccc(NC(=O)Nc2ccc3c(c2)N(C)C(=O)c2ccccc2S3)c1	inactive: -28%
CC1CCN(C(=O)Cn2c(-c3cccs3)cc3cc(Cl)ccc32)CC1	inactive: -2.06%
COc1ccc(-c2c(C)c3ccc(O)c(CN4CCOCC4)c3oc2=O)cc1OC	inactive: -0.937%
Cc1cc(C)c2c(c1)c(C)cc1nnc(SCC(=O)c3ccccc3)n12	inactive: -6.23%
Cc1ccc(C)c(NC(=O)C(CC(C)C)N2Cc3ccccc3C2=O)c1 (centres undefined)	inactive: -2.61%
O=C(CSc1nccn1Cc1ccc(F)cc1)NCc1ccco1	inactive: 0.354%
CC(C)(C)c1ccc(C(=O)Nc2ccc(-c3nc4ccccc4o3)c(O)c2)cc1	inactive: 3.42%
O=C(CN1C(=O)c2ccccc2Sc2ccc(C(=O)N3CCOCC3)cc21)Nc1ccc(Cl)cc1F	inactive: -0.0998%
CCN(CC)c1ccc2cc(-c3nc4sc5c(c4c(=O)[nH]3)CCC(C(C)(C)C)C5)c(=O)oc2c1 (centres undefined)	inactive: -8.02%
COc1cccc(NC(=O)c2c(C)oc3nc(C)nc(N4CCCC4)c23)c1	inactive: 6.13%
COc1ccc(CC(=O)Nc2nc3c(s2)CCCC3)cc1	inactive: -12.4%
CCC(=O)N1CCc2cc(S(=O)(=O)CCC(=O)N3CCN(c4cccc(C)c4C)CC3)ccc21	inactive: -5.47%

Structure (SMILES)	activity change, negative = inhibition
Cc1ccc2c(c1)N(C(=O)CCC(=O)NCc1cccc(F)c1)CC(C)O2 (centres undefined)	inactive: -7.94%
CCOc1ccc(-c2cc3c(=O)n(CC(=O)NCc4ccc(F)cc4)ccn3n2)cc1	inactive: 0%
COc1cccc2cc(-c3nc(-c4ccc(Cl)cc4)cs3)c(=O)oc12	inactive: 0.62%
CCOC(=O)c1cccc(NC(=O)CCS(=O)(=O)c2ccc3c(c2)CCN3C(=O)CC)c1	inactive: -2.22%
O=C(c1ccc(Cl)cc1)n1nc(-c2cccnc2)nc1NCc1ccc(F)cc1	inactive: 4.63%
CC(=O)c1cccc(NC(=O)c2ccc3nc(Cc4ccccc4)oc3c2)c1	inactive: -0.439%
CCCCOc1ccc(C(=O)N(Cc2ccccc2)C2CCS(=O)(=O)C2)cc1 (centres undefined)	inactive: -0.694%
CCn1c(=O)c2sccc2n2c(CCCC(=O)N3CCN(c4ccc(F)cc4)CC3)nnc12	inactive: 3.69%
Cc1ccc(O)c(NC(=O)C2=CC(c3ccco3)=NS(=O)(=O)N2C)c1	inactive: 4.17%
COC(=O)c1ccc(NC(=O)C(=O)NCCc2csc(-c3ccc(F)cc3)n2)cc1	inactive: -1.28%
O=C(CSc1ncccc1C(=O)Oc1ccccc1Cl)Nc1ccc(C(F)(F)F)cc1Cl	inactive: -0.302%
COc1ccc(N2CCN(Cc3nc4c(c(=O)[nH]c(=O)n4C)n3Cc3ccccc3C)CC2)cc1	inactive: -12.4%
Cc1csc2nc(COC(=O)CNC(=O)c3ccccc3)cc(=O)n12	inactive: 1.71%
O=c1oc2ccccc2cc1-c1cn2cc(Cc3cc(Cl)ccc3Cl)sc2n1	inactive: -7.33%
Cc1ccc(CN(C(=O)COc2ccccc2[N+](=O)[O-])c2ccccn2)o1	inactive: -17.4%
CCN(CC)S(=O)(=O)c1ccc2c(c1)N(CC(=O)Nc1cccc(C#N)c1)C(=O)CO2	inactive: -5.65%
CCc1nnc(NC(=O)CSc2nc3c([nH]c4ccccc43)c(=O)n2-c2ccc(Cl)cc2)s1	inactive: -4.56%
FC(F)(F)c1cc(-c2ccccc2)nc2cc(-c3ccccc3)nn12	inactive: 5.29%
Cc1ccc2onc(CC(=O)N3CCN(c4cccc(Cl)c4)CC3)c2c1	inactive: 0%
COc1ccc(NC(=O)Cn2c(=O)oc3cc(S(=O)(=O)N4CCCCCC4)ccc32)cc1OC	inactive: -13.8%
Cc1cc(F)ccc1NC(=O)Cn1cc(S(=O)(=O)NC(C)C)c(S(=O)(=O)NC(C)C)c1	inactive: 0.561%
CCCCSc1nc2sc3c(c2c(=O)n1-c1ccccc1C)CC(C)(C)OC3	inactive: 8.04%
